The record followed here is article PMC10668032.

Some of the results follow. At the low end of the ranking, values are background and their order means little.

For this test, the target named is SIX1 homeodomain (reference allele) (UniProt Q15475). Kind of test: universal protein binding microarray. Conditions: Universal all-10-mer PBM (8x60K, AMADID 030236), 300 nM GST-tagged protein, Alexa Fluor 488 anti-GST; buffer, salt, pH and temperature not stated; high values mean tight binding; most listed sequences are background and not binding sites; double strand, one strand shown.
On to CGGACATC, for which the binding signal was -0.177 E-score.

CGGCGTAG: the binding signal is -0.107 E-score.

Consider AACCACTT, for which the binding signal is -0.0743 E-score.

In the case of AGCACAGG, the binding signal is -0.101 E-score.

Regarding TGCCGGAA, the binding signal was -0.131 E-score.

For the sequence CTTGGAGC, the binding signal is -0.0107 E-score.

For TATCGTCA, the binding signal is 0.364 E-score.

With CGTCCACC, the binding signal is -0.243 E-score.

With TCCATCCA, the binding signal turned out to be 0.0976 E-score.

Turning to GACTGCTC, the binding signal was -0.357 E-score.

Consider ATGGGTCC, for which the binding signal is -0.0045 E-score.

As for AGCTTTGC, the binding signal was -0.116 E-score.

For CTGCTTCA, the binding signal was -0.265 E-score.

As to AAGAGCGA, the binding signal is -0.159 E-score.

For AGCATACA, the binding signal was -0.0273 E-score.

In the case of AGGTTTCA, the binding signal amounted to 0.08 E-score.

AGTTGGTA: the binding signal came out at 0.155 E-score.

Consider AAGGGTGC, for which the binding signal was -0.162 E-score.

Regarding GTTCGACA, the binding signal is -0.0843 E-score.

Consider CAGGGTGC, for which the binding signal was -0.117 E-score.

As to ATACTTTA, the binding signal came out at 0.261 E-score.

In the case of CGGCGGTA, the binding signal was determined as 0.12 E-score.

Turning to CAGTTTCA, the binding signal is -0.183 E-score.

On to CTGCTCTC, for which the binding signal was -0.132 E-score.

As for GCATTGCC, the binding signal was -0.147 E-score.

Take ACCCAAGT: the binding signal is -0.0168 E-score.

On to CCATTAAG, for which the binding signal is -0.0194 E-score.

As to AGGCCCAT, the binding signal was -0.27 E-score.

For the sequence CCATTAAA, the binding signal is -0.119 E-score.

As to GGCGTCTA, the binding signal is -0.0387 E-score.

With CGAGTGCC, the binding signal is -0.255 E-score.

With ACTGCGGG, the binding signal was 0.0231 E-score.

As to TTCAGGAA, the binding signal was -0.339 E-score.

As for CCAAGTCA, the binding signal was -0.127 E-score.

With AGATATAG, the binding signal came out at 0.187 E-score.

For the sequence AGCTGAGA, the binding signal was -0.0456 E-score.

Regarding ACAACCGC, the binding signal is 0.0366 E-score.

With GAGCGATC, the binding signal was 0.279 E-score.

For the sequence CAATGTGA, the binding signal is -0.103 E-score.

In the case of CCTGTTGC, the binding signal is -0.0543 E-score.

Take AGGGGGAC: the binding signal came out at 0.0297 E-score.

Consider ATTGGGAG, for which the binding signal was -0.0634 E-score.

Consider CGGGCGTA, for which the binding signal was 0.0313 E-score.

On to GGTACTAA, for which the binding signal turned out to be 0.00186 E-score.

On to GGGGTCAA, for which the binding signal stood at 0.151 E-score.

As for CGGATGGA, the binding signal turned out to be 0.121 E-score.

Regarding AAAATGTG, the binding signal was -0.158 E-score.

Turning to CGTGACAC, the binding signal came to 0.247 E-score.

On to TGCGGTAA, for which the binding signal was -0.176 E-score.

As for GCATACGA, the binding signal was 0.157 E-score.

With CCGCTACG, the binding signal is -0.171 E-score.

On to AAAGTACC, for which the binding signal was -0.176 E-score.

Consider CCACAAAA, for which the binding signal worked out at 0.0855 E-score.

For the sequence CTACTTCC, the binding signal was -0.0941 E-score.

For GGCCGACA, the binding signal is -0.173 E-score.

As for GATTGGGC, the binding signal was -0.108 E-score.

With GGCATGAC, the binding signal was -0.161 E-score.

With CTCGCAAA, the binding signal is -0.193 E-score.

In the case of GGCAGGCC, the binding signal was -0.196 E-score.

Regarding ATGGGCCC, the binding signal was -0.213 E-score.

On to GATCTATA, for which the binding signal amounted to 0.298 E-score.

For the sequence ACTAGATG, the binding signal came to 0.12 E-score.

Consider AGGAAGCG, for which the binding signal is -0.198 E-score.

Consider GACGCCCA, for which the binding signal was -0.192 E-score.

Regarding AGTAATGG, the binding signal was -0.0338 E-score.

In the case of CAAGCGAA, the binding signal was -0.2 E-score.

On to ATAGTCAG, for which the binding signal stood at 0.037 E-score.

For ACTAGTCA, the binding signal is -0.227 E-score.

Consider TATAGACA, for which the binding signal is 0.232 E-score.

Turning to ACTACGAA, the binding signal is -0.195 E-score.

Turning to CATGCTTA, the binding signal came to 0.0397 E-score.

In the case of CCGGATCC, the binding signal is 0.424 E-score.

Consider CCTAGGTA, for which the binding signal is 0.0984 E-score.

Take TCAATGAA: the binding signal worked out at 0.00752 E-score.

Take AAAGTCCC: the binding signal was -0.133 E-score.

For the sequence ATAAATCA, the binding signal worked out at 0.0906 E-score.

With ACCATACA, the binding signal is 0.18 E-score.

With ACCGGTCC, the binding signal is -0.206 E-score.

Consider ACGATGCC, for which the binding signal was -0.0824 E-score.

As to ATACCTAT, the binding signal worked out at 0.398 E-score.

As for AGGTGACA, the binding signal is 0.137 E-score.

Turning to TGACGACA, the binding signal is -0.0986 E-score.

Consider CCTGCGTA, for which the binding signal is -0.0253 E-score.

Take ATCCCCCC: the binding signal was 0.423 E-score.

With GGCTTCCC, the binding signal was determined as 0.0565 E-score.

CACAGTTA: the binding signal is -0.0533 E-score.

In the case of ATATTGCG, the binding signal was 0.234 E-score.

For the sequence CGTAGTCA, the binding signal was -0.0834 E-score.

CACGGCCG: the binding signal is -0.00311 E-score.

On to AAAATTCA, for which the binding signal is -0.283 E-score.

In the case of GGCCGTAC, the binding signal is 0.0548 E-score.

As for ACATCACA, the binding signal was 0.0126 E-score.

As to AGGCCAGA, the binding signal was -0.0852 E-score.

For the sequence ATTGACAC, the binding signal amounted to 0.315 E-score.
